# From PMC4336329 (PLoS ONE, 2015)
# In all, about 310,000 compounds went through this assay and about 2,200 (0.71%) showed an effect of 50% or more. The effect is printed as a negative number. The list shows a part of the results.
# Molecular target: human ether-à-go-go-related gene (hERG) potassium channel (human, UniProt Q12809)
# Assay: primary screen, population patch clamp on CHO cells stably expressing hERG
# Sequence of human ether-à-go-go-related gene (hERG) potassium channel (Q12809 whole entry, looked up): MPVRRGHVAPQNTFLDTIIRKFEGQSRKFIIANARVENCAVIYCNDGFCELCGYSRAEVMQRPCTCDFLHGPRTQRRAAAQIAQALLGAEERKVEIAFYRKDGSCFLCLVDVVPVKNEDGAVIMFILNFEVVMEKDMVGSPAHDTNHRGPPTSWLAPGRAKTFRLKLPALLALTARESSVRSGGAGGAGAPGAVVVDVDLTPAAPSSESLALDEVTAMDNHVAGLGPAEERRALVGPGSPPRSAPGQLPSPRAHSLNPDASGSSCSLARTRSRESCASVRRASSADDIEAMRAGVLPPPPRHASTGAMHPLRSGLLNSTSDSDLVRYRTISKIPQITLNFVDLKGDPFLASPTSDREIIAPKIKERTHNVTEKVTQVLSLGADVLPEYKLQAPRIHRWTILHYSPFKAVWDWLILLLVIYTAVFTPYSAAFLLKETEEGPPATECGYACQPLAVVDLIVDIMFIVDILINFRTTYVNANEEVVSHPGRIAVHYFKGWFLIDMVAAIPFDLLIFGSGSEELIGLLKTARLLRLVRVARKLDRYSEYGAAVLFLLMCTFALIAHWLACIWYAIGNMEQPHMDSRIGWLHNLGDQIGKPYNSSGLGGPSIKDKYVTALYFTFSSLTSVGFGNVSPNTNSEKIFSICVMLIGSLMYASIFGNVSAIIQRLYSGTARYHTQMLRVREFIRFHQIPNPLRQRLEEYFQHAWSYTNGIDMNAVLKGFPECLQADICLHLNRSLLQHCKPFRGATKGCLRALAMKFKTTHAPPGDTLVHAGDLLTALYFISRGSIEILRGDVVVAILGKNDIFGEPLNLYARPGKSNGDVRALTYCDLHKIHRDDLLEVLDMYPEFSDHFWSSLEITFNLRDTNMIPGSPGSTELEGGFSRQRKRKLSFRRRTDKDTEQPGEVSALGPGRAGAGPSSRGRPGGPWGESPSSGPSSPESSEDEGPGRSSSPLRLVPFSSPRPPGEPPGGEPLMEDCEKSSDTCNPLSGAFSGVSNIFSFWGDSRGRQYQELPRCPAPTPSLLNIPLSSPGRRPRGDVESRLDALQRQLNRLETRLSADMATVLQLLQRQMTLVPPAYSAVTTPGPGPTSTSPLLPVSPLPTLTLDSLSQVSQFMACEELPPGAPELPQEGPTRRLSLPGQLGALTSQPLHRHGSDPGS
row,Structure (SMILES),"hERG current change (%, negative = inhibition) at 1uM [%]"
1,CCN(CC(=O)Nc1ccc2c(c1)OCCO2)c1nc(-c2cccnc2)nc2ccccc12,-0.643
2,CN(C)C1CCN(C(=O)c2cccc(OC3CCN(S(=O)(=O)N(C)C)CC3)c2)C1 (stereo not shown),5.09
3,CCc1ccc(NC(=O)Nc2ccc3c(c2)N(C)C(=O)CS3)cc1,8.46
4,c1ccc(-c2csc(-c3ccncc3)n2)cc1,-11.9
5,O=S(=O)(Nc1nc2ccccc2nc1NCc1ccco1)c1ccccc1,6.47
6,COc1ccccc1CNC(=O)Cn1ccc2cc(S(=O)(=O)N3CCCC3)ccc21,11.7
7,Cc1cc2oc3c(c(=O)c2cc1C)C(c1ccc(F)cc1)N(CCCN1CCOCC1)C3=O (stereo not shown),0.651
8,Cl.O=[N+]([O-])c1ccc(OCC(O)CNC2CCCC2)cc1 (stereo not shown),-30.3
9,Cc1ccccc1CN1[C@@H](CC2CCCCC2)COCCS1(=O)=O,0.9
10,Cc1cc(C)n(-c2ccc(F)cc2CN2CCN(C3CCCC3)C(CCO)C2)n1 (stereo not shown),-1.97
11,COc1ccc(N/C(N)=N/c2nc(C)cc(=O)[nH]2)cc1,11.4
12,CCC(CO)NC1=C([N+](=O)[O-])C(=O)CC(C)(C)C1 (stereo not shown),10.9
13,Cc1ccc(NC(=S)NC(=O)c2ccc(-c3ccccc3)cc2)cc1,-3.73
14,CCCCn1c(CN2CCN(C(=O)OCC)CC2)nc2c1c(=O)[nH]c(=O)n2C,12.3
15,Cc1ccc(-c2ccc(CCC(=O)O)n2-c2ccc(C(=O)O)cc2)cc1,5.44
16,CCCNC(=S)N(Cc1cc2cc(C)ccc2n2nnnc12)CC(C)(C)CN(C)C,12.8
17,Cc1ccccc1C(=O)N1c2ccccc2OCC1C(C)(C)C (stereo not shown),13.5
18,Cn1nnnc1SCCNCc1ccccc1OCc1ccccc1,15.5
19,CCOC(=O)CNC(=O)c1cc(-c2ccc3c(c2)OCCO3)oc1C,-11.7
20,CCO.COc1ccc(CNc2nc3ccccc3n2Cc2ccc(Cl)cc2)cc1OC,7.55
21,O=C(c1cc(COc2ccc(F)cc2F)on1)N1C[C@H]2CC[C@H]1C2,7.23
22,CCN(c1ccccc1)S(=O)(=O)c1ccc(OC)c(NC(=O)C2CC2)c1,-4.81

row,Structure (SMILES),"hERG current change (%, negative = inhibition) at 1uM [%]"
1,BrC(=C\c1ccccc1)/C=N/N1CCN(c2ccccc2)CC1,4.74
2,CCOc1cc(N2CCOCC2)c(OCC)cc1NC(=O)COc1ccc2ccc(=O)oc2c1,7.45
3,COc1ccc(S(=O)(=O)Nc2cc3[nH]c(=O)oc3cc2C)cc1,14.2
4,C=CCn1c(SCc2csc(C)n2)nc2scc(-c3ccc(C)o3)c2c1=O,-3.09
5,C=CCN1C(=O)c2ccccc2Sc2ccc(C(=O)NCC(OC)OC)cc21,21.9
6,CC(c1ccccn1)N(Cc1ccco1)C(=S)Nc1cccc(F)c1 (stereo not shown),-2.03
7,Cc1ccc(SCCNC(=S)Nc2cc(C)cc(C)c2)cc1,4.28
8,CCOc1cc(-c2noc(-c3ccncc3)n2)cc(Br)c1OC,8.7
9,Cc1csc(NC(=O)c2ccc(C(=O)Nc3nc(C)cs3)cc2)n1,2.72
10,CN(C)S(=O)(=O)c1ccc(C(=O)OCCn2cnc3c2c(=O)n(C)c(=O)n3C)cc1,8.9
11,O=C1OCCC1Sc1nnnn1-c1ccc(Cl)cc1 (stereo not shown),4.89
12,CCOc1ccc2nc(SCc3ccc(OC)cc3)sc2c1,14
13,CCN(C(=O)c1ccc(NC(=O)c2ccco2)cc1)c1ccccc1,1.24
14,O=S(=O)(Cc1ccccc1)N(O)c1ccccc1,11.1
15,Cn1c(=O)c2c(nc(N3CCN(c4ccc([N+](=O)[O-])cc4)CC3)n2C)n(C)c1=O,-81.7
16,Nc1cc(=O)nc(SCC(=O)N2CCN(c3ccccc3)CC2)n1-c1ccccc1,7.29
17,Cn1cc([N+](=O)[O-])c(C(=O)Nc2nccs2)n1,8.81
18,CS(=O)(=O)Nc1cccc(C2=NN(C(=O)c3ccccc3)C(c3cccs3)C2)c1 (stereo not shown),17.3
19,COCCN(CC(=O)Nc1cccc(C)c1C)C(=O)c1cc(S(=O)(=O)N2CCCC2)ccc1C,11.1
20,CCOC(=O)Cn1c(=O)oc2cc(S(=O)(=O)NCCc3ccc(OCC)c(OCC)c3)ccc21,-5.14
21,CN(C)CCCOC(=O)c1ccc(Cl)cc1Cl.Cl,-7.49
22,CC(Oc1cccc(Cl)c1)C(=O)NC1CC(C)(C)NC(C)(C)C1 (stereo not shown),9.81

row,Structure (SMILES),"hERG current change (%, negative = inhibition) at 1uM [%]"
1,CC(C)(C)c1ccc(/C=C/C(=O)N2CCOCC2)cc1,13.4
2,O=C(OC(C(=O)NCc1ccc2c(c1)OCO2)c1ccc(Cl)cc1)c1ccco1 (stereo not shown),-17.3
3,CCOC(=O)N1CCN(C(=S)NC(=O)c2ccnn2C)CC1,15.5
4,CCOC(=O)c1cc(-c2ccc(F)cc2)n(CC(=O)NCc2ccccn2)c1C,9.43
5,CNC(=O)C(=O)N/N=C/c1ccccn1,12.7
6,CCOC(=O)N1CCN(C(=O)CN(c2cccc(C)c2)S(=O)(=O)c2ccc(C)cc2)CC1,-2.15
7,N#CC1(NC(=O)COC(=O)c2ncc(Cl)c(Cl)c2Cl)CCCCC1,2.82
8,S=C(Nc1cccc(Cl)c1Cl)N1CCCC1,14.6
9,Cc1ccc(C(=O)CC2(O)C(=O)N(C)c3ccc(Br)cc32)c(C)c1 (stereo not shown),-4.04
10,N#CSC(c1ccccc1)c1nc2ccccc2[nH]c1=O (stereo not shown),15.4
11,Cc1cccc(N(C(=O)c2ccc(Cl)cc2)C2CS(=O)(=O)CC2OC(=O)c2ccc(Cl)cc2)c1 (stereo not shown),26.1
12,O=C(NC(Cc1ccccc1)C(=O)N1CCN(c2ccccn2)CC1)c1ccco1 (stereo not shown),11.5
13,O=C(NC1CCN(C(=S)NCc2ccco2)CC1)NC12CC3CC(CC(C3)C1)C2,12.5
14,CC12CCCc3c(O)cc(=O)n(c31)-c1ccccc12 (stereo not shown),7.4
15,CC1CC(c2ccccc2)n2nc(NC(=O)c3cccs3)nc2N1 (stereo not shown),18.3
16,Cc1ccc(OCCOc2cccc3ccc(C)nc23)c([N+](=O)[O-])c1.O=C(O)C(=O)O,10.8
17,Br.OCCCn1c(-c2ccccc2)csc1=Nc1ccccc1,11.4
18,CCOc1ccccc1CNCc1ccc(C(=O)O)cc1.Cl,11.8
19,Cc1ccsc1/C=C1\SC(N)=NC1=O,12.7
20,CC(C)(C)NC(=O)NC(=O)COC(=O)c1cc[n+]([O-])cc1,4.45
21,COc1cccc(N2CCN(C(=O)C3CCCN(S(=O)(=O)c4ccc5c(c4)oc(=O)n5C)C3)CC2)c1 (stereo not shown),10.2
22,CCOC(=O)c1c(NC(=O)Cn2nnc3ccccc32)sc2c1CCC(C)C2 (stereo not shown),0.405

row,Structure (SMILES),"hERG current change (%, negative = inhibition) at 1uM [%]"
1,Cc1cc(C)c(NC(=O)CSc2nnc(CNC(=O)c3ccco3)o2)c(C)c1,11.7
2,CC(=O)Nc1ccc(S(=O)(=O)Nc2ccc(-c3ccc4nnc(C)n4n3)cc2)cc1,-3.52
3,CCC(C)C(=O)Nc1nc(C)c(-c2csc(Nc3ccc(Cl)cc3)n2)s1 (stereo not shown),17
4,COc1cccc2cc(-c3csc(CCn4nc(C)cc4C)n3)c(=O)oc12,-0.97
5,NC(=S)c1cnn2c(-c3cccc(C(F)(F)F)c3)ccnc12,11.8
6,CCOC(=O)c1[nH]c(C)c(C(=O)OCc2ccc(C)cc2)c1C,7.83
7,Cc1cccc(C)c1-n1c(=O)n(Cc2ccccc2)c(=O)c2[nH]cnc21,9.95
8,Cn1c(=O)[nH]c(=O)c2c1nc(CN1CCOCC1)n2Cc1ccccc1,-19.2
9,CCN1C(=O)C(O)(CC(=O)c2cc(C)ccc2C)c2ccccc21 (stereo not shown),6.47
10,N/C(=N\c1nc2c(c(=O)[nH]1)CCC2)Nc1ccccc1C(F)(F)F,10.1
11,N#CCc1ccc(NC(=O)Nc2cccc(Cl)c2)cc1,17
12,CCc1nnc(NC(=O)c2cccc(S(=O)(=O)N3CC(c4ccccc4)CC3=O)c2)s1 (stereo not shown),8.5
13,CCCn1nnc(NC(=O)c2ccc(OC)cc2)n1,4.46
14,CN1CCN(Cc2c(O)ccc3cc(Br)ccc23)CC1,6.01
15,O=C(CCn1nnc2ccccc21)Nc1nnc(COc2ccc(F)cc2)s1,5.44
16,O=C(CSc1ccc(Br)cc1)NCC(c1cccs1)N1CCOCC1 (stereo not shown),7.42
17,CC(C)NC(=O)[C@@H]1CSC2c3ccccc3C(=O)N21 (stereo partly shown),2.74
18,O=C(N/C(=C/c1ccc(F)cc1)C(=O)N1CCCC1)c1ccccc1,25.3
19,COc1ccc(Cc2nnc(NC(=O)c3ccccc3)s2)cc1OC,12.1
20,O=C(CNC(=O)c1cc(Cl)nc2ccccc12)Nc1ccccc1Br,-0.485
21,COCCNC(=S)NC12CC3CC(CC(C3)C1)C2,11.3
22,CC(C)CCN1CCN(Cc2cccn2-c2ccccn2)CC1CCO (stereo not shown),-36.6
